Reference: article PMC4336329 (PLoS ONE, 2015)
Among all 310,000 compounds or so, about 14,000 (4.5%) showed an effect of 50% or more. Effects have a minus sign here. Some of the results follow.

target: human ether-à-go-go-related gene (hERG) potassium channel (human, UniProt Q12809); experiment: primary screen, population patch clamp on CHO cells stably expressing hERG
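Further: peak tail current of the secondary pulse compared with the same well before compound.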

Chain of human ether-à-go-go-related gene (hERG) potassium channel (Q12809 whole entry, looked up): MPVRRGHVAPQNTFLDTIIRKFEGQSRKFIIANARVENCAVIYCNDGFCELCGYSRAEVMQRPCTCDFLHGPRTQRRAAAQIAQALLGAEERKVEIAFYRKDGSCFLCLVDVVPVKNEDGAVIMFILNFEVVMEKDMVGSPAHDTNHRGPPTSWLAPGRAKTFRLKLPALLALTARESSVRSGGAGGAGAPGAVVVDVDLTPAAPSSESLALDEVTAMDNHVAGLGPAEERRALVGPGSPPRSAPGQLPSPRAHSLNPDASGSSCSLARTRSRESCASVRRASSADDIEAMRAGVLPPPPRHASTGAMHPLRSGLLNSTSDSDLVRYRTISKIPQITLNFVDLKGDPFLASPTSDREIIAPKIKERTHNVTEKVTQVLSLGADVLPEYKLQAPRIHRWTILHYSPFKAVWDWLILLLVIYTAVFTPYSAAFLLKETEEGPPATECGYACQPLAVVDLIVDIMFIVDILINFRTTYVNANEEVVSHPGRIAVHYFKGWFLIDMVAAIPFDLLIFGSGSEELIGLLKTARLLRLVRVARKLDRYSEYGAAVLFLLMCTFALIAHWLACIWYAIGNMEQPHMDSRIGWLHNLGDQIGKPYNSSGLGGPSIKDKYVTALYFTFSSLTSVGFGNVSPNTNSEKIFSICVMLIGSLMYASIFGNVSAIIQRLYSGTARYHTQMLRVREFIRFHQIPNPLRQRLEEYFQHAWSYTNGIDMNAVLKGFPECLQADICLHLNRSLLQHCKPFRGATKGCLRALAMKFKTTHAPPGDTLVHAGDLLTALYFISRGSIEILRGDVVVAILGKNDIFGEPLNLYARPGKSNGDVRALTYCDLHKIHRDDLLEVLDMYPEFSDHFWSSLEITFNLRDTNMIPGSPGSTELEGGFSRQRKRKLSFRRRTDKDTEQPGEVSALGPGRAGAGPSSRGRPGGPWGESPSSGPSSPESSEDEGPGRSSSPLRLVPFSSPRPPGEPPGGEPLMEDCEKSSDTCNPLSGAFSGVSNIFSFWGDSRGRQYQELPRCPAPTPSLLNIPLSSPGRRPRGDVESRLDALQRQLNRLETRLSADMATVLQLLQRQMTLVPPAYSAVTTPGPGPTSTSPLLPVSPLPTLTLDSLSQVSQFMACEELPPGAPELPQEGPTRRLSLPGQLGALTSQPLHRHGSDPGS

SMILES | hERG current change (%, negative = inhibition) at 10uM [%]
CCN(C(=O)COC(=O)c1cc(-c2ccccc2)nc2ccc(Br)cc12)C1CCS(=O)(=O)C1 (stereo not drawn) | 10.5
O=C(CSc1nc(O)c(Cc2ccccc2)c(=O)[nH]1)Nc1nnc(SCc2ccccc2)s1 | 19.6
OCCSc1nncn1/N=C/c1c[nH]c2ccccc12 | 2.28
C[C@]12CCC(=O)CC1=CCC1C3CC=C(C#N)[C@@]3(C)CC[C@@]12O (stereo partly drawn) | 17.4
O=C(O)C1Sc2[nH]c(=O)sc2C2c3ccc(O)cc3OC(=O)C12 (stereo not drawn) | 22.8
CCN(CC)CC(O)Cn1c(-c2cccc(Cl)c2)nc2cc(C)c(C)cc21 (stereo not drawn) | -62.8
Cc1ccc(/C=C(/NC(=O)c2ccccc2)C(=O)NCCc2c[nH]c3ccccc23)o1 | -21.3
COc1ccc(O)c(C2NC(CC(C)C)(C(=O)O)C3C(=O)N(Cc4ccccc4)C(=O)C23)c1 (stereo not drawn) | 0.866
Cc1cc(NC(=O)NC(C(F)(F)F)C(F)(F)F)no1 | 14.1
O=C(Nc1cccc(Cl)c1)C1COc2ccccc2O1 (stereo not drawn) | 11.3
Cc1nc2cc(Cl)ccc2n1CCO | 0.979
COc1ccc2ccc(O)c(CN3CCN(S(=O)(=O)c4cccc(C(F)(F)F)c4)CC3)c2c1 | 0.947
O=C(NNC(=S)NC(=O)c1ccco1)c1ccc(F)cc1 | 12.1
Cc1ccc(-n2cc(CNC(C)c3cnn(C)c3C)c(-c3ccc(F)cc3)n2)cc1 (stereo not drawn) | -30.7
Cc1ccccc1NC(=O)C[n+]1cc(-c2ccccc2)n2c1CCC2.[Cl-] | 12.9
CCCCC(=O)N/N=C/c1sccc1C | 13.3
CCCCN(CCCC)CCCNC(=O)CC1Oc2ccc(C)cc2NC1=O (stereo not drawn) | -49.5
O=C(O)c1ccc2c(c1)ncn2C1CCCCCC1 | 12.6
O=C(O)c1cccc(NC(=O)N2C[C@H]3C[C@@H](C2)c2cccc(=O)n2C3)c1 | 8.44
COc1ccccc1N1CC(C(=O)Nc2nnc(SCc3cccnc3)s2)CC1=O (stereo not drawn) | 10.8
COC(=O)c1ccc(C(C(=O)NC2CCCCC2)N(C(=O)Cc2cccs2)C2CC2)cc1 (stereo not drawn) | -4.11
CCOc1ccc(NC(=O)c2cc(Cl)nc3ccccc23)cc1 | 7.45
CC(C)(C)c1ccc(NC(=O)N2CCCN(c3c(Cl)cncc3Cl)CC2)cc1 | 2
CC(C)(C)C(=O)C(CO)(Oc1ccc(Cl)cc1)n1cncn1 (stereo not drawn) | 9.33
